Seven proteins from article PMC5606850, “Acidic C-terminal domains autoregulate the RNA chaperone Hfq” (eLife, 2017) can be followed below.

This data set concerns the molecule itself. In words: SDS-PAGE of SDS-stable oligomers; ~2.8 µg purified Hfq protein, prepared in 2% SDS and boiled, 4–20% SDS-PAGE, Coomassie blue.

Values joined by “and” are separate entries in the source; they are usually repeats but may differ in a detail not shown here. Equal values may be shown once.

B1: E. coli Hfq102-R16A (natural protein)
chain: not shown
notes: probably made as Hfq102; source: purified Hfq protein
Turning to B1, the stoichiometry N (as a rule, the number of molecules, sites or subunits per partner or assembly) amounted to 6.

B2: E. coli Hfq-sCTD (Hfq with shortened CTD linker, lacks residues 86-96) (natural protein)
chain: not shown
notes: Hfq, E. coli, full-length background (Hfq102) with the linker residues 86-96 (inclusive) deleted; Untagged; also called Hfq102-sCTD
Take B2: the “stoichiometry N” value is 12 and 6.

B3: E. coli Hfq65 (Hfq core; truncated variant lacking the CTD) (domain or fragment)
chain: not shown
notes: Untagged; Forms a homohexameric ring; also called core Hfq; Hfq65 core
In the case of B3, the “stoichiometry N” value was 6.

B4: E. coli Hfq65-R19D (domain or fragment)
chain: not shown
notes: Hfq, E. coli, core […], rim mutation R19D; Untagged; made by site-directed mutagenesis of pET21b-Hfq
Consider B4, for which the “stoichiometry N” value was 6.

B5: E. coli Hfq65-Q35A (domain or fragment)
chain: not shown
notes: Hfq, E. coli, core […], mutation Q35A; Untagged; made by site-directed mutagenesis of pET21b-Hfq
As to B5, the “stoichiometry N” value came to 6.

B6: E. coli Hfq65-R16A (domain or fragment)
chain: not shown
notes: Hfq, E. coli, core […], rim mutation R16A; Untagged; made by site-directed mutagenesis of pET21b-Hfq
As for B6, the “stoichiometry N” value amounted to 6.

B7: E. coli Hfq65-K47A (domain or fragment)
chain: not shown
notes: Hfq, E. coli, core […], rim mutation K47A; Untagged; made by site-directed mutagenesis of pET21b-Hfq
With B7, the “stoichiometry N” value was 6.
